The supplement of paper PMC11417369
± gives the standard deviation of the averaged measurements. The list shows a part of the results.

test system: PfAP2-I AP2 domain 3 (GST-tagged); assay: gcPBM binding intensity (ln(normalized median fluorescence intensity)); higher = stronger DNA binding
Summary of the method: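 Each value is the highest Masliner-normalised natural-log median intensity across replicate spots of either orientation of a probe. The probes were primer-extended double-stranded 36-bp intergenic genomic sequences on an Agilent 4 × 180k array, alongside negative controls, exposed for 1 h to GST-tagged P. falciparum DNA-binding domains expressed in E. coli. Bound protein was picked up with Alexa488 anti-GST antibody and scanned at 488 nm.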

Sequence | gcPBM binding intensity (ln)
AAAAAAAACGAACACACACACATTCAATATAAAACA [CACACA_site6170] | 7.8 ± 0.52
GTAAGCACACATAGTTGTACATTAATAAAAATAAAT [XGTACX_site5876] | 7.89 ± 0.34
ATATGTATGAAGTGTACACATATATTGTATTTTCTT [CACACA_site5503] | 7.96 ± 0.45
TTCCTATAAAAAAACACACACATATAAATATATATA [CACACA_site2318] | 7.76 ± 0.72
TACAATTTAATATATACACACAAATAAATTATGCTT [CACACA_site856] | 7.49 ± 0.45
AACAATTTATATAAAGCACACATGGGAAGGAAATAC [CACACA_site1712] | 9.78 ± 0.16
AAATAAATGTTATGCATACACACTTTATACCTATTT [CACACA_site3779] | 8.02 ± 0.91
TCTTTTATGTTTGTTTTTCCCTTTTTTTATGTTCCC [CACACA_negctrl_site1722] | 7.72 ± 0.7
ATATATATTAGGTATTGTACTTATATGCATATAAGT [XGTACX_site2700] | 8.07 ± 0.43
AATGAATGAATTATTTTGCGCTTATTATAGGACGAA [XGTACX_negctrl_site218] | 8.23 ± 0.28
CACAAAAAGAAACACACACACATATATATTTATTAT [CACACA_site3646] | 7.68 ± 0.61
TATATATATATTTATACACACATTAGTGTATACATG [CACACA_site2950] | 8.925 ± 0.064
AAGTAATTTATGCATACACACATATATAAATATGTA [CACACA_site7813] | 8.02 ± 0.55
ATATATATAAAACACACACACACATGTTTTAAAACT [CACACA_site78] | 8.31 ± 0.55
AAAAACTATTGTAGGACACACAAAATTCCAATTTTA [CACACA_site1701] | 7.63 ± 0.39
ATATATTAAAACCTAGTGCATTTGTACATATTTCAA | 9.63 ± 0.099
TTATACAGGACAATAGTGCACATAAATATATGTATA | 11.2 ± 0.51
GCAGTCAAAAAGGAAAATATAAAAAAAGTATATGTG [GTGCAC_negctrl_site95] | 7.57 ± 0.61
AGGTTAAAACATATATATATATATATATATATATAT [XGTACX_negctrl_site333] | 9.22 ± 0.49
TATATATATATATACACACACACCGTCCGTGTTAAA [CACACA_site2979] | 9.66 ± 0.16
ACATAATAAAAAAAACGTACAAATAGGTTTTTCATA [XGTACX_site6645] | 7.87 ± 0.071
GACTATTTTAATATTTTACACACCATGTAAAATATA [CACACA_site9050] | 8.18 ± 0.69

Sequence | gcPBM binding intensity (ln)
TTTTTTTATTATTAAAGTACTAAAAAATGAAAACTG [XGTACX_site6758] | 7.91 ± 0.21
TGGGAATAAAAACACACACACACACCGATATATATA [CACACA_site5875] | 8.51 ± 0.69
TATAATAAAAAATGTACACACATAAGAAAATTTAAT [CACACA_site2901] | 7.99 ± 0.66
TAAATACTTATATGTACACACATATAGATATATATT [CACACA_site2553] | 7.62 ± 0.4
ATATAAATAAATGTATGTACATATATTTATATGCAT [XGTACX_site4185] | 7.74 ± 0.46
CACAGACACGGACACACACACACACCGATATATATA [CACACA_site4353] | 8.44 ± 0.71
ATTTTTTAAAATATTTGTACATATATAATGCATATA [XGTACX_site7026] | 8.17 ± 0.17
ATATATATATATATATGTACATATATTTGTAATGTC [XGTACX_site8074] | 9.35 ± 0.4
TTTATTATGTAAGCATGTACATGATGTATATATTTA [XGTACX_site5021] | 7.74 ± 0.36
ATCTGTACAGTTTTTGCACACATATAAATAAAAAAA [CACACA_site9198] | 9.77 ± 0.3
TATTTACAAATAAAAAGTACATAAACTAATATCTTT [XGTACX_site2181] | 7.76 ± 0.35
TATATTAGAAAGGATACACACATATATAAATATCTA [CACACA_site6411] | 7.36 ± 0.57
TTGTTTGTAAACAGATGTACATATAAAAATATATAT [XGTACX_site3370] | 8.01 ± 0.24
TATGAACACCCAAATACACACACTCAAAAAAAAAAA [CACACA_site5466] | 8.15 ± 0.52
AAAATGTTTTTATCCAGTACATAAATATATATATAT [XGTACX_site7398] | 9.15 ± 0.26
TCAGATCCATAGAAGGTGCAAATAACAAAAATACAA [GTGCAC_site9610] | 11 ± 0.43
TAATTTTTCTTATATAGTACACAAAAAGAAAATTAC [XGTACX_site6393] | 8.03 ± 0.18
TTCCCTATATAGAGCATGCACTATATTCAAATGATG | 8.49 ± 0.61
TTAGATATAAAAGCATGTACTTGTATAAAATATATA [XGTACX_site8272] | 7.6 ± 0.47
TTATCAAATGAGTGTTGTACGTCTTTTGAAATACCA [XGTACX_site8804] | 7.89 ± 0.38
GAAAAATTGAATTTGGGTACATATAAATATTATATT [XGTACX_site2363] | 7.46 ± 0.64
ATAAATATTAGCAGTTGTACAATAAATATATGTAAT [XGTACX_site2534] | 7.91 ± 0.5
